Source: patent publication US20080248131A1 (Metaproteomics, LLC, priority 2005, published 2008)
Marks after values point to notes of the source that are not given here.

Test system: IL-6 secretion, 3T3-L1 adipocytes
Assay: IL-6 secretion in LPS/3T3-L1 adipocytes
Assay type: cell-based, murine
Conditions: 5.00 μg/ml (dose providing maximum inhibition); with 100 ng LPS/ml, D5 3T3-L1 adipocytes

## COc1ccc2c(c1)c(CC(=O)O)c(C)n2C(=O)c1ccc(Cl)cc1 [indomethacin]
  % Inhibition (IL-6 secretion, maximum): 53* %
